From ChEMBL document CHEMBL1201862, “PubChem BioAssay data set” (2004)
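Compound exposure: 48 hours, 5 concentrations, 96-well plates. Here, GI50 denotes the concentration required for 50% inhibition of growth.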 Activity calls are given as the source filed them. Rule as the data show it: active = GI50 up to about 1.1 µM and inactive = higher.

The compounds below were run on NCI-H322M (assay: DTP human tumour cell line panel, 48 h).
`OC1(c2ccc(-c3ccccc3)cc2)c2ccccc2C2=NCCN21` (stereo unspecified) was tested, and the GI50 was inactive: 67.9 µM.
With `O=c1oc2ccccc2cc1-c1cn2ccccc2n1` the GI50 was inactive: 8.85 µM.
With `O=C(O)CSc1nnc2c3ccccc3c3ccccc3c2n1` the GI50 was inactive: 54.6 µM.
With `Cc1c(CNc2ccc(C(=O)NC(CCCNC(=O)c3ccccc3C(=O)O)C(=O)O)cc2)cnc2nc(N)nc(N)c12` (stereo unspecified) the GI50 was active: 0.00156 µM.
`COc1ccc(C(=O)/C=C2\C(=O)Nc3ccc(Br)cc32)cc1` was tested, and the GI50 was inactive: 17.7 µM.
For `Cc1nn(-c2ccccc2)c2c1CC(=O)Nc1ccccc1-2`, the GI50 was inactive: 2.24 µM.
For `c1ccc2c3nc(C4CCCC4)nc-3c(NC3CCCC3)[nH]c2c1`, the GI50 was inactive: 30.5 µM.
In the case of `O=C1c2ccccc2-c2cccc3ccc(Cc4ccccc4)c1c23`, the GI50 is reported as inactive: > 100 µM.
`CC(=O)OC(C#N)CC(C)(C)/[N+]([O-])=[N+](\[O-])C(C)(C)CC(C#N)OC(C)=O` (stereo unspecified) was tested, and the GI50 was inactive: 26.1 µM.
With `CN1C/C(=C\c2ccccc2[N+](=O)[O-])C(=O)/C(=C/c2ccccc2[N+](=O)[O-])C1` the GI50 was inactive: 2.96 µM.
For `O=C1CCC23CC(C=CC=C12)n1c(=O)n(-c2ccccc2)c(=O)n13` (stereo unspecified), the GI50 was inactive: > 100 µM.
With `Cc1ccccc1N1C(=O)/C(=C/c2ccc(N(CCC#N)CCC#N)cc2)N=C1c1cc([N+](=O)[O-])ccc1Cl` the GI50 was inactive: 2.7 µM.
In the case of `NNC(=O)/C(NC(=O)c1ccccc1)=C(\N)c1cccc([N+](=O)[O-])c1`, the GI50 is reported as inactive: > 100 µM.
In the case of `CCCCCCCCCCCCCCCCCC(=O)Nc1ccn(C2CCC(COP(=O)(O)O)O2)c(=O)n1` (stereo unspecified), the GI50 is reported as inactive: > 100 µM.
In the case of `CC1=C(C(=O)OC(C)C)C(c2cccc([N+](=O)[O-])c2)C(C(=O)OC(CO[N+](=O)[O-])CO[N+](=O)[O-])=C(C)N1` (stereo unspecified), the GI50 is reported as inactive: 25.2 µM.
`Cn1c(=O)c2nc(NCCO)cnc2n(C)c1=O` was tested, and the GI50 was inactive: > 100 µM.
With `Cc1cccc(C(C)(C)C)c1NC(=O)CC1C(=O)Nc2ccccc2S1(=O)=O` (stereo unspecified) the GI50 was inactive: 11.5 µM.
`Cc1nccc2c1cnc1ccnn12` was tested, and the GI50 was inactive: > 100 µM.
In the case of `OCCNCN(CNCCO)c1nc(N(CNCCO)CNCCO)nc(N(CNCCO)CNCCO)n1`, the GI50 is reported as active: 0.082 µM.
`O=C(O)C(SC1=NC(=O)C2(NN1)c1ccccc1-c1ccccc12)SC1=NC(=O)C2(NN1)c1ccccc1-c1ccccc12` was tested, and the GI50 was inactive: > 10 µM.
`Cc1nc2ccccc2c(=O)n1/N=C(\N=N\c1cc(Cl)ccc1Cl)c1cccc(-c2ccco2)c1` was tested, and the GI50 was inactive: > 100 µM.
For `O=C(/C=C/c1ccc(O)c(O)c1)NC(CO)C(=O)O` (stereo unspecified), the GI50 was inactive: > 100 µM.
`CCCCCCNC(=O)c1cc(NCc2cc(OC)ccc2OC)ccc1O` was tested, and the GI50 was inactive: 35.1 µM.
`O=C(CN1CCOCC1)NC1=Nc2ncccc2C(=O)NN1` was tested, and the GI50 was inactive: > 10 µM.
In the case of `COc1ccc(NC2=CC(=O)C(=O)c3ccccc32)nn1`, the GI50 is reported as inactive: 3.81 µM.
For `CCC(=O)O[C@H]1CC[C@H]2[C@@H]3CCC4=C/C(=N/NC(=O)c5cccc6c(=O)c7ccccc7[nH]c56)CC[C@]4(C)[C@H]3CC[C@]12C`, the GI50 was inactive: > 25 µM.
With `COc1cc(/C=C2/SC(c3ccccc3)N(c3cccc([N+](=O)[O-])c3)C2=O)cc(OC)c1OC` (stereo unspecified) the GI50 was inactive: > 100 µM.
In the case of `C=CC(OC(C)=O)c1ccc(OC(=O)C(C)C)c(OC)c1` (stereo unspecified), the GI50 is reported as inactive: 5.27 µM.
For `O=S(=O)(N/N=C/c1ccc(Cl)c(Cl)c1)c1ccccc1`, the GI50 was inactive: 39.3 µM.
For `COc1cccc(/C=N\NC(=O)C(C)SC(C)C(=O)N/N=C/c2cccc(OC)c2)c1` (stereo unspecified), the GI50 was inactive: 21.2 µM.
`COc1ccccc1Nc1nc(N)nc(N)c1N` was tested, and the GI50 was inactive: > 100 µM.
In the case of `CC1(C)OC(CCC#N)CN1C(=O)OCc1ccccc1` (stereo unspecified), the GI50 is reported as inactive: > 100 µM.
With `CN1CN(C2OC(CO)C(O)C2O)c2nc(N)[nH]c(=O)c21` (stereo unspecified) the GI50 was inactive: > 100 µM.
In the case of `NC(=O)C(=CNC(=S)Nc1ccccc1)C(N)=O`, the GI50 is reported as inactive: > 100 µM.
For `COc1cc2ccc1OCc1cccc(n1)COc1ccc(cc1OC)/C=N\c1ccc(cc1)-c1ccc(cc1)/N=C\2`, the GI50 was inactive: > 100 µM.
For `Cc1ccc2c(c1C)C(=O)/C(=C/c1cccc(C)c1C(=O)O)C2`, the GI50 was inactive: > 100 µM.
`Oc1nc(CC(O)c2ccc(Cl)c(Cl)c2)cc(-c2ccccc2)n1` (stereo unspecified) was tested, and the GI50 was inactive: 72.6 µM.
`CCOC(=O)C(=C=Cc1cccs1)C(=O)c1ccccc1` was tested, and the GI50 was inactive: 16.9 µM.
For `O=S(=O)(c1cc(Cl)ccc1Cl)N1CCN(c2ccc(Cl)c(Cl)c2)CC1`, the GI50 was inactive: 37.4 µM.
`O=C(C(Cl)Cl)N(O)c1ccccc1OCc1ccccc1` was tested, and the GI50 was inactive: 34.7 µM.
In the case of `OCC1OC(N2CCN(C3OC(CO)C(O)C(O)C3O)CC2)C(O)C(O)C1O` (stereo unspecified), the GI50 is reported as inactive: > 100 µM.
`CC(C)(C)c1cc(C2COC(=O)COCC(=O)OCCOCCOCCO2)cc(C(C)(C)C)c1O` (stereo unspecified) was tested, and the GI50 was inactive: 39 µM.
`O=C(Nc1cc(Cl)ccc1Cl)C(=O)C(c1cnc2ccccc2n1)[N+](=O)[O-]` (stereo unspecified) was tested, and the GI50 was inactive: > 100 µM.
For `Cc1ccc(S(=O)(=O)NC(=O)C2=C3SCCN3C(=O)N(S(=O)(=O)c3ccc(C)cc3)C2c2ccccc2)cc1` (stereo unspecified), the GI50 was inactive: 67 µM.
With `O=C(c1ccccc1)c1ccc2cccc(O)c2n1` the GI50 was inactive: > 100 µM.
For `OCCN(CCO)c1cccc(N(CCO)CCO)c1`, the GI50 was inactive: > 100 µM.
`COc1ccc2c(c1)/c(=C/C#N)c1c3ccccc3[n+](C)n21` was tested, and the GI50 was inactive: 8.77 µM.
`CCOC(=O)/C(=C\c1ccc(N(CCC#N)CCC#N)cc1)NC(=O)c1cc([N+](=O)[O-])ccc1Cl` was tested, and the GI50 was inactive: > 100 µM.
`O=C(NCc1cccs1)OC1CC2CCC1C2` (stereo unspecified) was tested, and the GI50 was inactive: > 100 µM.
In the case of `O=C(CC(=O)CC(O)(C(F)(F)F)C(F)(F)F)CC(O)(C(F)(F)F)C(F)(F)F`, the GI50 is reported as inactive: > 10 µM.
With `COC(=O)C1=C(CCCCO[Si](C)(C)C(C)(C)C)NC(=O)N2[C@H](CCOCc3ccccc3)CC[C@@H]12` the GI50 was inactive: > 100 µM.
With `O=C(CN1CCCC1)Nc1ccc2c(c1)C1Oc3ccccc3CC1CO2` (stereo unspecified) the GI50 was inactive: 56.8 µM.
In the case of `CCOC(=O)c1cc(-c2ccc(Cl)cc2)c([N+](=O)[O-])n1C`, the GI50 is reported as inactive: > 10 µM.
`Cc1nc(N)c(N2CCN(C(=O)O)CC2)c(O)n1` was tested, and the GI50 was inactive: > 100 µM.
For `COc1cc2oc3ccccc3c(=O)c2cc1CSc1ccccc1N`, the GI50 was inactive: 30.9 µM.
In the case of `Cc1ccc(C)n2c1nc1ccccc12`, the GI50 is reported as inactive: > 100 µM.
In the case of `CNC(=O)OCc1c(COC(=O)NC)c(-c2ccc(-c3ccccc3)cc2)n(C)c1C`, the GI50 is reported as inactive: 1.51 µM.
In the case of `CN(C)CCNC(=O)c1cccc2c(NCCN(C)C)c3ccccc3nc12`, the GI50 is reported as inactive: 2.36 µM.
In the case of `Nc1ccc(C2SCC(=O)N2NS(=O)(=O)c2cccc(C(=O)O)c2)cc1` (stereo unspecified), the GI50 is reported as inactive: > 100 µM.
For `COc1c(Cl)ccc(Cl)c1-c1nnc(-c2c(Cl)c(Cl)c(Cl)c(Cl)c2-c2nc3cc(C(=O)c4ccccc4)ccc3[nH]2)o1`, the GI50 was inactive: 80.2 µM.
In the case of `C=C1C(=O)OC2/C=C(\C)C3OC3/C=C(/C(=O)OC)C(O)C(OC(=O)C3(C)OC3C)C12` (stereo unspecified), the GI50 is reported as inactive: 11.1 µM.
With `O=C1OC(=O)C23CSCC12C1C=CC3O1` (stereo unspecified) the GI50 was inactive: > 100 µM.
In the case of `NC1c2c(Cl)sc(Cl)c2C(=O)C1O` (stereo unspecified), the GI50 is reported as inactive: 69.3 µM.
In the case of `COc1ccc(OC)c2sc(N3C(=O)/C(=C/c4ccc(Cl)cc4)N=C3c3ccccc3)nc12`, the GI50 is reported as inactive: > 100 µM.
`CCOC1(OCC)N=C(N)C2(C#N)C3(C(=O)N(C(C)C)N=C3C)C12C#N` (stereo unspecified) was tested, and the GI50 was inactive: > 100 µM.
In the case of `CN1C(=O)CNS1(=O)=O`, the GI50 is reported as inactive: > 100 µM.
For `COc1c2c3c4c(c(OC)c(=O)c5c(O)cc(OC)c(c6c(OC)cc(O)c(c1=O)c63)c54)C(C(C)O)C2C(C)O` (stereo unspecified), the GI50 was inactive: 1.96 µM.
For `COC(=O)c1cc2c3c(c(C(C)=O)c(OC)c2[nH]1)NCC3`, the GI50 was inactive: > 50 µM.
In the case of `CCCCCCCCCCCCCCCCc1c(O)nc(NN)nc1C(=O)OC`, the GI50 is reported as inactive: > 50 µM.
In the case of `CCN(CC)CCCn1c(=O)c2cccnc2n2c3c(=O)n(C)c(=O)n(C)c3nc12`, the GI50 is reported as inactive: > 100 µM.
With `CN(C)N1C(=O)SCC(c2ccccc2)(c2ccccc2)C1=O` the GI50 was inactive: > 100 µM.
`COC(=O)C(CNC(=O)/C=C/c1ccc(OC)c(OC)c1)NC(=O)/C=C/c1ccc(OC)c(OC)c1` (stereo unspecified) was tested, and the GI50 was inactive: > 100 µM.
`NC(=O)c1nnc2c(F)cccc2c1N` was tested, and the GI50 was inactive: > 100 µM.
For `c1ccc2c3c([nH]c2c1)C1C2CCCCN2C(c2ccncc2)N1CC3` (stereo unspecified), the GI50 was inactive: 85.7 µM.
For `CC(=O)O[C@H]1CC[C@@]2(C)C(=CC[C@H]3[C@@H]4C[C@H](N5CCOCC5)[C@H](OC(C)=O)[C@@]4(C)CC[C@@H]32)C1`, the GI50 was inactive: > 100 µM.
With `COc1cc(OC(=O)c2c(O)cc(O)c(O)c2C)cc(C)c1C(=O)Oc1cc(C)c(C(=O)O)c(O)c1` the GI50 was inactive: > 100 µM.
With `O=S(=O)(O)C(CO)c1ccccc1.O=S(=O)(O)Cc1ccccc1` (stereo unspecified) the GI50 was inactive: > 100 µM.
`Cc1cc(=O)oc2cc(OC(=O)Nc3ccc(Cl)c(Cl)c3)ccc12` was tested, and the GI50 was inactive: 35.3 µM.
In the case of `CN(CCCNC(=O)c1c2ccc3ccccc3c2nn1C)CCCNC(=O)c1c2ccc3ccccc3c2nn1C`, the GI50 is reported as inactive: 12.2 µM.
For `CN(C)CCNC(=O)c1cccc2c(NCC(=O)O)c3ccccc3nc12`, the GI50 was inactive: 15.8 µM.
With `CCCCn1c(CSc2ccc(Cl)cc2)c(C(=O)OCC)c2cc(OC)c(Br)cc21` the GI50 was inactive: > 100 µM.
With `COc1cc(C(c2cc(OC)c(OC)c(OC)c2)N2C(=O)CCC2C(=O)O)cc(OC)c1OC` (stereo unspecified) the GI50 was inactive: > 100 µM.
`CC[C@@]1(N(C)C)C(=O)OCc2c1cc1n(c2=O)Cc2cc3ccccc3nc2-1` was tested, and the GI50 was inactive: 46.8 µM.
In the case of `C[C@H]1CCC2C(OC(=O)[C@@H]2CN(C)C)[C@]2(C)C(=O)C=CC12O` (stereo partly specified), the GI50 is reported as inactive: 17.2 µM.
`Oc1ccc(-c2nc3cc(C(F)(F)F)ccc3n2CC2CCCN3CCCCC23)cc1` (stereo unspecified) was tested, and the GI50 was inactive: 13.6 µM.
With `O=[N+]([O-])C1C2C=CC(C2)[C@H]1c1ccc(Cl)cc1Cl` (stereo partly specified) the GI50 was inactive: > 100 µM.
With `Nc1ncnc2c(C3OC(CO)C(O)C3O)n[nH]c12` (stereo unspecified) the GI50 was active: 0.061 µM.
With `COc1cc2nc(-c3ccccc3F)nc(O)c2cc1OC` the GI50 was inactive: > 100 µM.
For `C[C@H](OC(=O)/C=C/c1ccc(O)c(O)c1)[C@H](C)OC(=O)/C=C/c1ccc(O)c(O)c1`, the GI50 was inactive: 13.7 µM.
For `CSCCCNC(=O)c1csc(-c2csc(CCNC(=O)CNC(=O)CNC(=O)OC(C)(C)C)n2)n1`, the GI50 was inactive: > 100 µM.
`COc1ccc2c(c1)CN1CCc3c(cc(OC)c(OC)c3OC)C1C2` (stereo unspecified) was tested, and the GI50 was inactive: > 100 µM.
